In article PMC4336329 (PLoS ONE, 2015):
The whole screen tested about 310,000 compounds, of which about 14,000 (4.5%) showed an effect of 50% or more. Effects have a minus sign here. The list shows a part of the results.

target: human ether-à-go-go-related gene (hERG) potassium channel (human, UniProt Q12809); experiment: primary screen, population patch clamp on CHO cells stably expressing hERG
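Also: peak tail current of the secondary pulse compared with the same well before compound.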

Chain of human ether-à-go-go-related gene (hERG) potassium channel (Q12809 whole entry, looked up): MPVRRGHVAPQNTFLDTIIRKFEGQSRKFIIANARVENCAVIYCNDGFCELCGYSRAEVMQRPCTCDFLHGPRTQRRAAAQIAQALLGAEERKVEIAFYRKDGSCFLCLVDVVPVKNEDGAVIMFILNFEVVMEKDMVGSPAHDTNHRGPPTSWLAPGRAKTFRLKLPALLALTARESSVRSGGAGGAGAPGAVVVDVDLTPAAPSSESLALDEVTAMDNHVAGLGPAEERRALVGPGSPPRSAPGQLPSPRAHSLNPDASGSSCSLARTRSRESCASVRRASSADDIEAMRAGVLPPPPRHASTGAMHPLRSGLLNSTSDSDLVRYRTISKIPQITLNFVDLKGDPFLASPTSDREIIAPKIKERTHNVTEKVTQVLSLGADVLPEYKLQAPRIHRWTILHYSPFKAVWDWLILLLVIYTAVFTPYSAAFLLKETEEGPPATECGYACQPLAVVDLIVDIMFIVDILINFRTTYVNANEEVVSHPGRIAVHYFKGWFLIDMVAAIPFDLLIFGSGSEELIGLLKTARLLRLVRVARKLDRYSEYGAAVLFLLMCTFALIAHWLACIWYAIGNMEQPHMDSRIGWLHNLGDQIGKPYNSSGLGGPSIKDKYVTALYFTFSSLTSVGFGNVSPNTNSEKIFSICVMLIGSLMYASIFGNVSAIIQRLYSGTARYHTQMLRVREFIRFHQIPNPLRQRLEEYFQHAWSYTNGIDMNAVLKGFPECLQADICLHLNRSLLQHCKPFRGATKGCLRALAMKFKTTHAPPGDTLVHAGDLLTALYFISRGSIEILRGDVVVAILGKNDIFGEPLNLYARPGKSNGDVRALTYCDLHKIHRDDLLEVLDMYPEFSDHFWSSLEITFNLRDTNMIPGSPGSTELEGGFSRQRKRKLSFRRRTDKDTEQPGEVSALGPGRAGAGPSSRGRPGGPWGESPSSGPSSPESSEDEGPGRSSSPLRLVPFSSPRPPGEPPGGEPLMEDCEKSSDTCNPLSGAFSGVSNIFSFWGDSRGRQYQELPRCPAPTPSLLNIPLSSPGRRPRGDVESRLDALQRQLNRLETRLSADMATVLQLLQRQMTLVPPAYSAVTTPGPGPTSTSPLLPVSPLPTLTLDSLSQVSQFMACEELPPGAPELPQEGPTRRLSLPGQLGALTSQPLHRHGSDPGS

Compared with `CCN(CC)C(=O)C1CCN(Cc2ccc(OCc3ccccc3)cc2)CC1.O=C(O)C(=O)O`, `Cc1noc(C)c1S(=O)(=O)N1CCC(C(=O)N(C)Cc2ccccc2)CC1` is higher in “hERG current change (%, negative = inhibition) at 10uM” value: -48.7% for the first, -4.83% for the second.

Compared with `Cc1ccc[n+](CC(=O)/C=C2\N(C)c3ccccc3C2(C)C)c1.[Cl-]`, `Cc1cccc(N=Cc2c(O)n(-c3ccccc3C)c(=O)[nH]c2=O)c1` is lower in “hERG current change (%, negative = inhibition) at 10uM” value: -1.13% for the first, -5.15% for the second.

Compared with `CCCCCCC[n+]1ccc(-c2cc[n+](CCCCCCC)cc2)cc1.[I-]`, `CC1(C)CC(=O)C=C(NCCc2ccc(S(N)(=O)=O)cc2)C1` is lower in “hERG current change (%, negative = inhibition) at 10uM” value: 9.12% for the first, -9.57% for the second.

Going from `Clc1ccc(C2NCCc3sccc32)cc1` (stereo not drawn) to `CC1CCCC(C)N1C(=O)COC(=O)Cc1ccc(Cl)cc1` (stereo not drawn), the “hERG current change (%, negative = inhibition) at 10uM” value rises from -6.6% to 2.54%.

First: COC(=O)C1=C(c2ccc(OC)c(OC)c2)C[C@@H]2CC[C@H]1N2C(=O)N1CCCCC1
Second: COc1cccc(NS(=O)(=O)c2ccc(C)c(C(=O)N3CCCCC3)c2)c1
The “hERG current change (%, negative = inhibition) at 10uM” value of the first is higher: 11.2% for the first, -19.8% for the second.

First: O=C(NCC1CCN(c2ccc(S(=O)(=O)N3CCOCC3)cc2)CC1)Nc1ccccc1F
Second: O=C(Cc1ccccc1Cl)Nc1cccc(S(=O)(=O)N2CCCCCC2)c1
The “hERG current change (%, negative = inhibition) at 10uM” value of the first is higher: -16.7% for the first, -18.3% for the second.

First: O=C(c1ccccc1)c1ccccc1C(=O)c1ccccc1
Second: N#CC(NC(=O)OCc1ccccc1)c1ccccc1 (stereo not drawn)
The “hERG current change (%, negative = inhibition) at 10uM” value of the first is lower: -6.01% for the first, -3.2% for the second.

Going from `CC(C)C1C(C#N)=C(N)Oc2n[nH]c(-c3cccs3)c21` (stereo not drawn) to `CC(C)(C)C1CCc2c(sc(NC(=O)c3cccs3)c2C(N)=O)C1` (stereo not drawn), the “hERG current change (%, negative = inhibition) at 10uM” value rises from 8.19% to 15.2%.

Compared with `O=c1c([N+](=O)[O-])c(O)c2cccc3c2n1CCC3`, `COc1cccc(C(=O)Nc2cc3c4c(c2)CC(=O)N4CCC3)c1` is lower in “hERG current change (%, negative = inhibition) at 10uM” value: 29.8% for the first, 7.04% for the second.

Going from `Cc1nn(C)cc1C(=O)Nc1c(C)nn(Cc2ccccc2Cl)c1C` to `Cc1cc(C)n(CCC(=O)N/N=C/c2c(O)ccc3ccccc23)n1`, the “hERG current change (%, negative = inhibition) at 10uM” value falls from 5.51% to -4.47%.

First: COc1ccc(C)cc1S(=O)(=O)Nc1cccc(-c2cn3cccnc3n2)c1
Second: Cc1ccc2cccc(NS(=O)(=O)c3ccccc3)c2n1
The “hERG current change (%, negative = inhibition) at 10uM” value of the first is lower: 2.69% for the first, 7.02% for the second.

First: COc1ccc(OCC(=O)Nc2c3c(nn2-c2ccccc2)CS(=O)(=O)C3)cc1
Second: COc1ccc(C2CC(O)(c3ccccc3)Oc3cc(OC)c(OC)c(OC)c32)cc1 (stereo not drawn)
The “hERG current change (%, negative = inhibition) at 10uM” value of the first is higher: -1.88% for the first, -3.75% for the second.

Compared with `CCOC(=O)Cn1c(=O)oc2cc(S(=O)(=O)Nc3cc(OCC)ccc3OCC)ccc21`, `NS(=O)(=O)c1ccc(CCNC(=O)c2coc3ccccc3c2=O)cc1` is higher in “hERG current change (%, negative = inhibition) at 10uM” value: -42.3% for the first, -6.49% for the second.

Going from `NC(=O)COc1ccc2c3c(c(=O)oc2c1)CCCCC3` to `Cc1ccc(NC(=O)Nc2ccc3c(c2)CCC3)cc1C`, the “hERG current change (%, negative = inhibition) at 10uM” value falls from -4.98% to -22.8%.

Going from `C[C@@H]1C=C(C(=O)O)O[C@H](OCc2ccc(CO)cc2)C1` to `OCC[C@H]1C[C@H](O)[C@@H](O)[C@@]2(CCc3ccccc3O2)O1`, the “hERG current change (%, negative = inhibition) at 10uM” value rises from -20.5% to -6.43%.

Compared with `O=C(c1ccc([N+](=O)[O-])s1)N1CCN(c2ccccc2)CC1`, `Cc1cc(C(=O)NCC(c2ccco2)N2CCCC2)c2ccccc2n1` (stereo not drawn) is higher in “hERG current change (%, negative = inhibition) at 10uM” value: -25.8% for the first, 6.54% for the second.

Compared with `COc1c(C)cc(Br)cc1C(=O)O`, `COc1cccc(C(=O)Nc2ccc(Cl)c(C(F)(F)F)c2)c1` is lower in “hERG current change (%, negative = inhibition) at 10uM” value: 1.82% for the first, -21.3% for the second.

First: CSCCC(NC(=O)CCC(=O)OCC(=O)[C@@]1(O)CCC2[C@@H]3CCC4=CC(=O)C=C[C@]4(C)C3[C@@H](O)C[C@@]21C)C(=O)O (stereo partly drawn)
Second: O=C(COC(=O)Cc1cccs1)Nc1ccccc1
The “hERG current change (%, negative = inhibition) at 10uM” value of the first is higher: 14.9% for the first, -9.89% for the second.

Compared with `CC(=O)N1c2ccccc2[C@H](C)[C@H]1C`, `CN(c1ccc(O)cc1)S(=O)(=O)c1ccc2ccccc2c1` is lower in “hERG current change (%, negative = inhibition) at 10uM” value: 6.54% for the first, -12.8% for the second.

Going from `N/C(Cn1cncn1)=N\NC(=O)c1ccc(Cl)cc1Cl` to `O=C(NCCCn1ccnc1)Nc1ccc(Cl)cc1`, the “hERG current change (%, negative = inhibition) at 10uM” value falls from 7.11% to -14.2%.

First: Cc1[nH]c(=S)c(C#N)c(C)c1Cc1ccc(Cl)cc1Cl
Second: CC(C)Oc1cc(O)c2c(=O)c(-c3ccc(O)cc3)coc2c1
The “hERG current change (%, negative = inhibition) at 10uM” value of the first is higher: 22.2% for the first, 13.1% for the second.

Going from `COc1ccc(NC(C)=O)cc1NC(=O)CSc1nnc(-c2ccc(F)cc2)n1N` to `Cn1c(CNC(=O)c2ccc3c(c2)OCO3)nnc1SCC(=O)Nc1ccc(F)cc1`, the “hERG current change (%, negative = inhibition) at 10uM” value falls from 2.05% to -7.22%.

For `O=C(NCc1ccco1)c1cccc(Br)c1`, the “hERG current change (%, negative = inhibition) at 10uM” value was 5.56%.
